Here are results for six molecules from the supplement of paper PMC11383711.

Changes are numbered by the printed parent chain. The list shows a part of the results. Binding of human antibodies (heavy:light variable regions, tested as scFv in one mRNA-display pool) to influenza hemagglutinin, with or without the stem antibody CR9114 bound first. Score = (mean enrichment − median) / interquartile range of that screen; higher = more enriched, 0 = typical non-binder. Active = above the paper's cut-off per screen: stems 28; unblocked H1 Solomon Islands 5, H1 Michigan 3, H3 5, H5 19, H7 2.85, both B 5; blocked 9, 7, H5 10, H7 10, B Phuket 10, B Lee 11.5. Scores are scaled within each screen and are no affinities; replicates correlate at about 0.6 to 0.9, and antibodies rare in the pool are noisier.

The chains are these.
B1: 042-10-2D01 (protein)
chain 1: QVQLQESGPRVVKPSETLSLTCSVSGESISSFYWSWIRQPAGKGLEWIGRIDSSGSTNYNPSLKSRVSMSLDTSKKQVSLKLTSVTAADTAVYYCVRDWWEVQYGNAFDMWGQGTMVTVSS
chain 2: DIQMTQSPSSLSASVGDRVILTCRASQSIGTYLNWYQQKPGKAPKFLIYVASNLQSGVPSRFSGSGSGTDFTLTISSLQPEDFATYFCQQSHSIPWTFGQGTKVEIK
B2: K77-2A05 (protein)
chain 1: EVQLVESGGGVVQPGRSLRLSCAASGFTFASYGLHWVRQAPGKGLEWVAHVSSEGSEKYYADSVKGRFTISRDNPKNKLYLQMTSLRAEDTAVYYCARDRSGYFQVDYWGQGTLVTVSS
chain 2: QSALTQPASVSGSPGQSITISCTGATSDVGNYNLVSWYQHHPGKVPKLILYEVTERPSGVSNRFSGSKSGNTASLTISGLQAEDEADYYCCSYATGGIFLFGTGTKVTVL
B3: K77-2B03 (protein)
chain 1: EVQLVESGGIVVRPGGSLTLSCTTSGFTFDAHAMHWVRQAPGKGLEWVSLIGWDSAVTFYADSVRGRFNISRDNSKNSLYLQINSLRLEDTALYYCVRDDGSGSYGYHHFDLDVWGRGTMVIVSS
chain 2: DVVMTQSPLSLPVTLGQPASISCRSTQSLVFSDGDTYLNWFQQRPGQSPRRLIYKVSNRDSGVPDRFSGSGSGTDFTLRISRVEADDVGVYYCMQGTHWPLTFGGGTKVEI
B4: K77-2A10 (protein)
chain 1: EVQLVESGGGLVQPGGSLRLSCEASGFIFSTYSMNWVRQAPGKGLEWVSYISDSSRTIYYADSVKGRFTISRDNTKNSLFLQMNNLRAEDTALYYCARDPDTPFIRAFDSWGQGTLVTVSS
chain 2: DIQLTQSPSFLSASVGDRVTITCRASQDISSYVAWYQQKPGKAPKLLIYATSTLQSGVPSRFSGGGSGTEFTLTIRGLQPEDFATYYCQQLNIYPPVTFGQGTKLEIK
B5: K77-1B02 (protein)
chain 1: EVQLVESGGGLERPGGSLRLSCAASGFTFDDHGMSWVRQAPGKGLEWVSGINWNGGSTGYADSVKGRFTISRDNAKSSLFLQMNSLRAEDTALYYCARDSQQGIAAAGIFHYWGQGTLVTVSS
chain 2: DIQMTQSPSTLSASVGDRVTITCRASQSINRWLAWYQQKPGKAPKLLIYRASSLESGVPSRFSGSGSGTEFTLTISSLQPDDFATYFCQHYEGYSWTFGQGTKVDIK
B6: 042-10-2B05 (protein)
chain 1: QVQLVESGGGVVQTGRSLRLSCAASGFTFRNYAMHWVRQAPGKGLEWVAVILYDGNNEYYADFAKGRFTISRDNSKNIVYLQLNSLRPEDSAIYFCAKDGEYSGHESEVHWGQGTLVTVSS
chain 2: B5 chain 2 with I29V, N30F, R31S, L46V, R50K, F87Y, H90Q, E92Q, G93S, D105E

For the first assay, the target named is Influenza A H1N1 A/Michigan/45/2015 hemagglutinin ectodomain. In words: mRNA display binding score; higher = more enriched on the antigen. The settings on record: antigen blocked with: 2 µM CR9114 IgG. How it is done: (§1)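 A pool of natively paired antibodies, displayed as scFv on mRNA, was selected once on antigen-coated beads and sequenced before and after; two replicates.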
In the case of B1, the “mRNA display binding score” value was active: 54.9.
With B2, the “mRNA display binding score” value was inactive: -0.417.
For B3, the “mRNA display binding score” value was inactive: -0.476.
Consider B4, for which the “mRNA display binding score” value is inactive: -0.0198.
B5: the “mRNA display binding score” value is inactive: -0.254.
As to B6, the “mRNA display binding score” value was inactive: 4.12.

The same assay, now with this note: antigen blocked with: nothing.
As to B1, the “mRNA display binding score” value is inactive: 2.13.
The same measure, in the same setting: the same measure for B2: inactive: -0.707; for B3: inactive: 0.607; for B4: inactive: 0.151.
Turning to B5, the “mRNA display binding score” value was inactive: -0.00944.
For B6, the “mRNA display binding score” value was inactive: 0.608.

The target in the next assay is Influenza A H1N1 A/Solomon Islands/3/2006 hemagglutinin ectodomain. Described as above. The settings on record: antigen blocked with: 2 µM CR9114 IgG. How it is done:
as §1
Consider B1, for which the “mRNA display binding score” value was inactive: 2.13.
As for B2, the “mRNA display binding score” value is inactive: -0.657.
As to B3, the “mRNA display binding score” value is inactive: -0.0355.
In the case of B4, the “mRNA display binding score” value was inactive: 0.0913.
Same read-out and setting: with B5 the figure was inactive: -0.197; with B6, inactive: 1.51.

Still in this assay, the particulars now being: antigen blocked with: nothing.
For B1, the “mRNA display binding score” value is inactive: 0.537.
B2: the “mRNA display binding score” value was inactive: -0.533.
With B3, the “mRNA display binding score” value was inactive: -0.292.
With B4, the “mRNA display binding score” value is inactive: 0.164.
Still for that read-out and setting: with B5 the figure was inactive: -0.431.
As to B6, the “mRNA display binding score” value is inactive: 0.4.

In another assay the target is Influenza A H3N2 A/Singapore/INFIMH-16-0019/2016 hemagglutinin ectodomain. The description is as above. The settings on record: antigen blocked with: nothing. How it is done: as §1
Consider B1, for which the “mRNA display binding score” value was inactive: 0.335.
With B2, the “mRNA display binding score” value was inactive: -0.588.
As to B3, the “mRNA display binding score” value was inactive: 0.554.
As for B4, the “mRNA display binding score” value is inactive: 0.39.
In the case of B5, the “mRNA display binding score” value was inactive: -0.299.
On to B6, for which the “mRNA display binding score” value is inactive: 0.122.

The next assay has as its target Influenza A H5N1 A/Qinghai/1A/2005 hemagglutinin ectodomain. The description is as above. The settings on record: antigen blocked with: 2 µM CR9114 IgG. How it is done:
as §1
With B1, the “mRNA display binding score” value is inactive: 0.407.
As for B2, the “mRNA display binding score” value is inactive: -0.722.
For the molecule B3, the “mRNA display binding score” value is inactive: -0.141.
Take B4: the “mRNA display binding score” value was inactive: 4.57.
Turning to B5, the “mRNA display binding score” value is inactive: -0.498.
As for B6, the “mRNA display binding score” value was inactive: 0.852.

The same assay, now with this note: antigen blocked with: nothing.
As for B1, the “mRNA display binding score” value is inactive: 0.033.
Consider B2, for which the “mRNA display binding score” value was inactive: -0.551.
Consider B3, for which the “mRNA display binding score” value was inactive: -0.328.
On to B4, for which the “mRNA display binding score” value was inactive: 6.69.
The same measure, in the same setting: the same measure for B5: inactive: -0.301; for B6: inactive: 0.267.

For another assay, the target named is Influenza A H7N9 A/Shanghai/2/2013 hemagglutinin ectodomain. Described as above. The settings on record: antigen blocked with: 2 µM CR9114 IgG. On the procedure: as §1
Turning to B1, the “mRNA display binding score” value was active: 36.7.
B2: the “mRNA display binding score” value is inactive: -0.725.
Turning to B3, the “mRNA display binding score” value is inactive: 0.317.
In the case of B4, the “mRNA display binding score” value was inactive: -0.42.
B5: the “mRNA display binding score” value was inactive: 0.136.
Same read-out and setting: with B6 the figure was inactive: -0.262.

Staying with this assay, now noted: antigen blocked with: nothing.
For the molecule B1, the “mRNA display binding score” value was inactive: 0.159.
B2: the “mRNA display binding score” value was inactive: -0.798.
Same read-out and setting: the same measure for B3: inactive: 0.778; for B4: inactive: 0.23; for B5: inactive: -0.1.
As to B6, the “mRNA display binding score” value is inactive: 0.592.

For a further assay, the target named is Influenza B/Lee/1940 hemagglutinin ectodomain. Described as above. Particulars: antigen blocked with: 2 µM CR9114 IgG. How it is done: as §1
For the molecule B1, the “mRNA display binding score” value was inactive: 0.621.
Consider B2, for which the “mRNA display binding score” value is inactive: -0.4.
Consider B3, for which the “mRNA display binding score” value was inactive: -0.0533.
Still for that read-out and setting: the same measure for B4: inactive: -0.385; for B5: inactive: -0.0412; for B6: inactive: -0.75.

Staying with this assay, now noted: antigen blocked with: nothing.
Take B1: the “mRNA display binding score” value was inactive: 0.0173.
For B2, the “mRNA display binding score” value was inactive: -0.454.
For the molecule B3, the “mRNA display binding score” value is inactive: -0.418.
Turning to B4, the “mRNA display binding score” value was inactive: 0.128.
On the same count and under the same terms, the same measure for B5: inactive: -0.265; for B6: inactive: -0.41.

The target of another assay is Influenza B/Phuket/3073/2013 hemagglutinin ectodomain. The description is as above. The settings on record: antigen blocked with: 2 µM CR9114 IgG. On the procedure:
as §1
As to B1, the “mRNA display binding score” value was inactive: 0.694.
Turning to B2, the “mRNA display binding score” value is inactive: -0.666.
Still for that read-out and setting: the same measure for B3: inactive: 0.112; for B4: active: 29; for B5: inactive: -0.307.
Still for that read-out and setting: the same measure for B6: inactive: -0.000462.

Staying with this assay, now noted: antigen blocked with: nothing.
Turning to B1, the “mRNA display binding score” value was inactive: -0.109.
Take B2: the “mRNA display binding score” value is inactive: -0.385.
On the same count and under the same terms, with B3 the figure was inactive: -0.0386; with B4, active: 38.7.
As for B5, the “mRNA display binding score” value is inactive: -0.32.
Regarding B6, the “mRNA display binding score” value was inactive: -0.225.
